The list shows a part of the results.
Test system: PfAP2-HC AP2 domain (GST-tagged)
Test: gcPBM binding intensity (ln(normalized median fluorescence intensity)); higher = stronger DNA binding
Method in brief: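 For binding intensity, the highest Masliner-normalised natural-log median intensity across replicate spots of either probe orientation was taken. Protein bound to the array was stained with Alexa488 anti-GST antibody and scanned at 488 nm. The protein, GST-tagged P. falciparum DNA-binding domains from E. coli at about 25 μg on average, had been applied for 1 h to an Agilent 4 × 180k array of primer-extended double-stranded 36-bp intergenic genomic probes and negative controls.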

| Sequence | gcPBM binding intensity (ln) |
| --- | --- |
| AAAATGAACAGACACACACACATATTTATATTTATA [CACACA_site7182] | 10.3 |
| TATTAATCTAATTCATAAAAAATGATCTATTTTGTT [CACACA_negctrl_site1035] | 9.42 |
| AACATTTGATAAGATACACACACAAGGAAAAAAATA [CACACA_site8004] | 10.6 |
| TAGAATAATCTATAAACACACAAACACAACAAAAGA [CACACA_site7861] | 10.8 |
| TTTTTTTCTTTATTAGCACACATAATATTATATATG [CACACA_site8841] | 9.79 |
| TATATCATTATATAAACACACAATATGTTTTTTATA [CACACA_site3781] | 9.64 |
| TATAGGTATATATAAGTGCAATATATATGTATATAC [GTGCAC_site9427] | 9.82 |
| GAAAAGCAGATAAATGTGCACATATATGTTTGTATA | 9.86 |
| TATTATTTTTTAAATTGTACAATAAATTATAAAAGG [XGTACX_site1162] | 9.24 |
| ACATAAAATTGTTAAAAAATTGTATAAATAATACAT [XGTACX_negctrl_site557] | 9.54 |
| CAGCTCTTAAAAATTACACACATATACTCATATATA [CACACA_site5757] | 9.78 |
| AGATATTTTATAATTACACACATGAGGTTATTTGAA [CACACA_site1999] | 9.6 |
| TTATAAAAATAATATCGTACAAATGACATAGATGAA [XGTACX_site2570] | 9.8 |
| CATATACATAAACACACACACACATAAATAAATATA [CACACA_site4864] | 10.6 |
| GTGTTTTTTTTAGATTGTACATATATATATATATAT [XGTACX_site4562] | 9.87 |
| TTTTGTAATTCTCTTCATATAATTTATATATATATA [CACACA_negctrl_site1825] | 9.61 |
| ACCCAACATATGTGTACACAGAAAATAAATATAATA [CACACA_site5901] | 9.78 |
| ATGTATGTATAATATACACACTCACAAGCATTCAAA [CACACA_site4306] | 9.94 |
| GTATATATTCATATGGAAAATAAAGGAGAAAACAAG [TGCATGCA_negctrl_site220] | 9.79 |

| Sequence | gcPBM binding intensity (ln) |
| --- | --- |
| TTTGTTTTTTCTTTTTGTACATATACAAGATACGTA [XGTACX_site2309] | 9.53 |
| TAAGTGCATGAGATATGTACATATATAAAATATATA [XGTACX_site3294] | 9.95 |
| AATAAAAACTAAACATGTACGCACATATATATATAT [XGTACX_site8096] | 9.8 |
| TAAAAAAAAAAAAATACACACACACCGATATATATA [CACACA_site8498] | 10.7 |
| TCATAGTCTTAATGACTACACACCTAACTATGCATG [CACACA_site1839] | 9.75 |
| ATGGTAGTGATTAAAAGTACACGTAATTGTAAAAAT [XGTACX_site387] | 9.86 |
| ATATATATACATACATACCTATGTATATGTGTAATT [GTGCAC_negctrl_site50] | 9.69 |
| TAAACAACTTATAAATGTACACATATTTTAATTACC [XGTACX_site5409] | 9.6 |
| ATAAACATATCAATATGTACATATTTTTGTTTGTAT [XGTACX_site7018] | 9.77 |
| AAACCACAAAATTTTTTATATATGACCAATACATAG [CACACA_negctrl_site277] | 9.57 |
| ATTTATCAATAAAATGCACACACTGTAATATTATTA [CACACA_site3976] | 9.85 |
| TTATAATAGTTAAATGTACACACTAACTACATGGAA [CACACA_site9070] | 9.72 |
| ATTTGTTACACTAAATGTACATACATACATATATAT [XGTACX_site6175] | 10 |
| TTATAAATTATAGGTACACACAAAAAAAAAAAGAAA [CACACA_site1327] | 9.88 |
| ATATATATGTATGTATGTACATATTTGAATTTATTT [XGTACX_site8470] | 9.9 |
| AGCACAGACGGACACACACACATATATATATATATA [CACACA_site4341] | 10.8 |
| TTCCATATAATTACATGTACACATTTTGAATAATAT [XGTACX_site3692] | 9.82 |
| AAAAAAAAAAGAAACACACACATTTGTATTTAATAT [CACACA_site5184] | 10.2 |
| GTGATTTAATTGTGTTGTACATATTTATAAATAAAA [XGTACX_site8966] | 9.41 |

| Sequence | gcPBM binding intensity (ln) |
| --- | --- |
| GTACAGATAAATATTACACACATTTTCATTTTTAAC [CACACA_site5140] | 9.8 |
| TTGTTCTTTTTTTTTTTATTTTTTAATTTGAAAAGA [CACACA_negctrl_site209] | 9.37 |
| AAAAAGAAAAAACGAAGTACAATTATAAGATTATAT [XGTACX_site410] | 9.72 |
| TATGTGCCAAGACACACACACATATTTATATTTATA [CACACA_site6360] | 10.2 |
| TATGAAAAATATCTTTGTACTTAGAAATATATACAC [XGTACX_site5393] | 9.54 |
| TTATTATTATATGAATGTACTTAAAAATACATTTTG [XGTACX_site2959] | 9.52 |
| ATTCTATATACACGCACACACACTTATATATATATA [CACACA_site3322] | 10.6 |
| CCCTTTTCTAAATATTGTACGTATAAATTATATTAC [XGTACX_site7676] | 9.74 |
| AGAGATTATAAAATATGTACTAAATATTAAATCTTA [XGTACX_site7050] | 9.53 |
| AAAAAAATATTATAATATATATATATATATATATAT [GTGCAC_negctrl_site399] | 9.39 |
| AAAGTAAAAATATACTGTACAAATTTTTTCCCCTCT [XGTACX_site171] | 9.61 |
| AAAGAAAGCACATACACACACAAAAAAAAAAAAGAA [CACACA_site776] | 10.8 |
| ATTTTTTAAAAAGTAACACACACTCTTATAAATAAC [CACACA_site7668] | 9.89 |
| ATATTTATATACAAATGTACGCATATAATATATATA [XGTACX_site1232] | 9.56 |
| AAACAAAAAAAAAAAAAAAAAAAAAAAAAAAAAAAA [GTGCAC_negctrl_site254] | 8.8 |
| GATGCACTTTAAAAATGTACTTATACCTTTAATTGT [XGTACX_site6395] | 9.66 |
| ATAACGACCTAGACGTGTACATACAAAGGAATGAAA [XGTACX_site4870] | 10.1 |
| CATACACATAGACACACACACATATATACCTATATA [CACACA_site6644] | 10.8 |

Reference: the supplement of paper PMC11417369
